The campaign covered roughly 310,000 compounds. About 2,200 (0.71%) showed an effect of 50% or more. The effect is printed as a negative number. This is one part of the list.
Each compound was assayed against human ether-à-go-go-related gene (hERG) potassium channel (human, UniProt Q12809) (assay: primary screen, population patch clamp on CHO cells stably expressing hERG).
Sequence of human ether-à-go-go-related gene (hERG) potassium channel (Q12809 whole entry, looked up): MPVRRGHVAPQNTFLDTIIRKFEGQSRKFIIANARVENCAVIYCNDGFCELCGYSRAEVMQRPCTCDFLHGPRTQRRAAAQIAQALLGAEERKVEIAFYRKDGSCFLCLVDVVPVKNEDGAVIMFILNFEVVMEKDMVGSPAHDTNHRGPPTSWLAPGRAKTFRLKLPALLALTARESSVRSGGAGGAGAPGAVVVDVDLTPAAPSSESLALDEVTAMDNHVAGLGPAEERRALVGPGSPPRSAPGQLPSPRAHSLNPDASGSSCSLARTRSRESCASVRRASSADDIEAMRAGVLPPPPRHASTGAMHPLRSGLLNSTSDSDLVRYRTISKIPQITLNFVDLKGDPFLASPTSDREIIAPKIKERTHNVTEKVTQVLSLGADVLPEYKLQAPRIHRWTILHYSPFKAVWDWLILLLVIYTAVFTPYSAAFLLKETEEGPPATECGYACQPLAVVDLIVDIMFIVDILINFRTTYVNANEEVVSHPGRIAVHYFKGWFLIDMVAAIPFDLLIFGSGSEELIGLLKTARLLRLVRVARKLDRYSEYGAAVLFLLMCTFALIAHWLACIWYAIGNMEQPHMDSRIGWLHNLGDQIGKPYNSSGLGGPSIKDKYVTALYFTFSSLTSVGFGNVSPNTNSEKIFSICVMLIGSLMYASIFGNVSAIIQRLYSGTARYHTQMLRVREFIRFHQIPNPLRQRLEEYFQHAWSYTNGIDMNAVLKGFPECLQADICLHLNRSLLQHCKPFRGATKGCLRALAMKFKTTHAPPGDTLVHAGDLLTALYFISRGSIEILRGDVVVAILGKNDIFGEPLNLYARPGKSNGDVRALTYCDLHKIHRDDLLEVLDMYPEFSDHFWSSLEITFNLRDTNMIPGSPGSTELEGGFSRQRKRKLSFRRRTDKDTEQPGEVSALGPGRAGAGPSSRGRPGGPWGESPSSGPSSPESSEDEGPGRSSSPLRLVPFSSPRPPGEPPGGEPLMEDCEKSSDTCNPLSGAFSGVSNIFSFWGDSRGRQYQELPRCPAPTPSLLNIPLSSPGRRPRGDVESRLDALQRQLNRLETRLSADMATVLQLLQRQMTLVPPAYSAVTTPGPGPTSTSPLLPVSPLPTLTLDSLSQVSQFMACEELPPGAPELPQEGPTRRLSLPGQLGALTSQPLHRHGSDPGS
With `Cc1ccc(C(=O)C2=C(O)C(=O)N(Cc3cccnc3)C2c2ccc(OC(C)C)cc2)o1` (stereo not drawn) the “hERG current change (%, negative = inhibition) at 1uM” value was 13.6%. In the case of `CC(=O)Nc1ccc(CN2CCN(CC(C)C)C(CCO)C2)cc1` (stereo not drawn), the “hERG current change (%, negative = inhibition) at 1uM” value is reported as 9.12%. `Cc1ccc2nc(C3CCN(C(=O)c4ccco4)CC3)[nH]c2c1.Cl` was tested, and the “hERG current change (%, negative = inhibition) at 1uM” value was -6.6%. `COc1ccc(/C(C)=N/NS(=O)(=O)c2cc(C)ccc2C)c(OC)c1` was tested, and the “hERG current change (%, negative = inhibition) at 1uM” value was 11.6%. In the case of `O=C(c1ccc(-c2nc3ccccc3s2)o1)N1CCN(c2ccccc2O)CC1`, the “hERG current change (%, negative = inhibition) at 1uM” value is reported as 12.4%. `COc1ccccc1N1CCN(C(=O)Cn2nnc(-c3cccs3)n2)CC1` was tested, and the “hERG current change (%, negative = inhibition) at 1uM” value was 13%. In the case of `Cc1nnc2ccc(-c3cccc(NC(=O)Cc4cccs4)c3)nn12`, the “hERG current change (%, negative = inhibition) at 1uM” value is reported as -0.401%. For `CCc1ccc2[nH]c(=O)c(CN(CCCN3CCOCC3)C(=O)Nc3ccccc3)cc2c1`, the “hERG current change (%, negative = inhibition) at 1uM” value was -4.38%. In the case of `COc1ccc(N2CCN(C(C)C(=O)N(C)Cc3ccccc3)CC2)cc1` (stereo not drawn), the “hERG current change (%, negative = inhibition) at 1uM” value is reported as -10%. `Cc1ccc(/C=C/C2=NN(Cc3ccccc3Cl)C(=O)CC2)cc1` was tested, and the “hERG current change (%, negative = inhibition) at 1uM” value was 8.51%. In the case of `CCS(=O)(=O)Nc1cccc(-c2cc(-c3ccccc3)c3cc(C)ccc3n2)c1`, the “hERG current change (%, negative = inhibition) at 1uM” value is reported as 12.8%. With `COc1ccc(C(=O)Nc2nc3ccc4nc(C)sc4c3s2)cc1` the “hERG current change (%, negative = inhibition) at 1uM” value was 16.7%. `COc1ccc(NC(=O)CN(C)C(=O)Cc2ccsc2)cc1` was tested, and the “hERG current change (%, negative = inhibition) at 1uM” value was 13%. `O=C(Nc1ccc(F)cc1F)c1noc2c1CCC2` was tested, and the “hERG current change (%, negative = inhibition) at 1uM” value was -2.34%. For `O=C(O)CC(c1cccc2ccccc12)N1Cc2ccccc2C1=O` (stereo not drawn), the “hERG current change (%, negative = inhibition) at 1uM” value was 11.4%. `CCc1sc(C(=O)NNC(=O)CNC(=O)c2ccccc2F)cc1C` was tested, and the “hERG current change (%, negative = inhibition) at 1uM” value was 5.79%. With `COc1cc(NC(=O)c2nccn2C)cc(C(=O)Nc2cccc(C(F)(F)F)c2)c1` the “hERG current change (%, negative = inhibition) at 1uM” value was 3.05%. In the case of `CCc1c(C)sc2nc3c(C(=O)N4CCOCC4)cc(C(=O)c4ccccc4O)cn3c(=O)c12`, the “hERG current change (%, negative = inhibition) at 1uM” value is reported as 2.15%. With `CC(C)(C)NS(=O)(=O)c1ccc(OCC(=O)Nc2ccc3c(c2)OCCO3)cc1` the “hERG current change (%, negative = inhibition) at 1uM” value was 9.4%. `Cc1oc2c(c1C(=O)NCc1cc(C(=O)O)co1)CCCC2` was tested, and the “hERG current change (%, negative = inhibition) at 1uM” value was -11%. With `Cc1cccc(N=Cc2cc(Br)cc(Cl)c2O)c1` the “hERG current change (%, negative = inhibition) at 1uM” value was 18.7%. In the case of `O=C(NCc1ccncc1)C1CCCN(S(=O)(=O)Cc2ccccc2)C1` (stereo not drawn), the “hERG current change (%, negative = inhibition) at 1uM” value is reported as 9.39%. With `CN(C)C(CNC(=S)Nc1cccc(Cl)c1)c1cccnc1` (stereo not drawn) the “hERG current change (%, negative = inhibition) at 1uM” value was 11%. With `Cc1c(Cl)cccc1NC(=O)COC(=O)c1ccc(CN2CCCC2=O)cc1` the “hERG current change (%, negative = inhibition) at 1uM” value was 15.6%. With `O=C(O)c1cccc(NS(=O)(=O)c2ccc3c(c2)OCCCO3)c1` the “hERG current change (%, negative = inhibition) at 1uM” value was 15.5%. For `CSc1ccccc1OCc1cc(C(=O)NC(C)c2cnn(C)c2)no1` (stereo not drawn), the “hERG current change (%, negative = inhibition) at 1uM” value was 5.57%. In the case of `Cc1c(Cl)cccc1NC(=O)C1Cc2ccccc2CN1C(=O)c1ccccc1` (stereo not drawn), the “hERG current change (%, negative = inhibition) at 1uM” value is reported as 9.61%. In the case of `O=C(NCCc1ccccc1)c1ccc2c(c1)N(Cc1ccccc1)CCS2`, the “hERG current change (%, negative = inhibition) at 1uM” value is reported as 7.91%. For `Clc1ccc(-c2nc(Cc3ccccc3)no2)cc1`, the “hERG current change (%, negative = inhibition) at 1uM” value was 9.81%. `COC(=O)c1c(NC(=O)c2c(Cl)cnn2C)sc(C)c1C` was tested, and the “hERG current change (%, negative = inhibition) at 1uM” value was 14.9%. `CN1CCN(CC(=O)Nc2ccc(Cl)cc2C(=O)c2ccccc2)CC1` was tested, and the “hERG current change (%, negative = inhibition) at 1uM” value was -83.3%. For `Cc1csc(SCC(=O)Nc2nnc(C)s2)n1`, the “hERG current change (%, negative = inhibition) at 1uM” value was 15.4%. With `CC(C)c1ccccc1NS(C)(=O)=O` the “hERG current change (%, negative = inhibition) at 1uM” value was 16.9%. In the case of `O=C(CCC(=O)c1cccs1)NCc1ccc(F)cc1`, the “hERG current change (%, negative = inhibition) at 1uM” value is reported as 3.77%. In the case of `COc1ccc(/C=C/C(=O)NCCCN2CCOCC2)cc1`, the “hERG current change (%, negative = inhibition) at 1uM” value is reported as 4.07%. `COc1ccccc1CNC(=O)Cn1c(=O)c2cccn2c2cccnc21` was tested, and the “hERG current change (%, negative = inhibition) at 1uM” value was 12.3%. For `CC(=O)NCc1ccc(-c2csc(NC(=O)CCCc3nc4ccccc4c(=O)[nH]3)n2)cc1`, the “hERG current change (%, negative = inhibition) at 1uM” value was 4.39%. With `O=C(C1CC1)N1CCC(C(O)(c2ccccc2)c2ccccc2)CC1` the “hERG current change (%, negative = inhibition) at 1uM” value was 3.38%. `Cc1ccc(-c2nnc(-c3cc(C)on3)o2)cc1` was tested, and the “hERG current change (%, negative = inhibition) at 1uM” value was 18.4%. With `COc1ccc(OC)c(S(=O)(=O)N2CCN(Cc3ccccc3)CC2)c1` the “hERG current change (%, negative = inhibition) at 1uM” value was 15%. `Cc1ccc(Cl)cc1N1CCN(C(=O)Cc2cn(C)c3ccccc23)CC1` was tested, and the “hERG current change (%, negative = inhibition) at 1uM” value was 13.8%. For `CC1CCCN(C(=O)CCS(=O)(=O)c2ccc3c(c2)NC(=O)C(C)S3)C1` (stereo not drawn), the “hERG current change (%, negative = inhibition) at 1uM” value was 11.1%. With `CC1(C)Cc2c(c(=S)nc(-c3ccccc3)n2CCCN2CCOCC2)CO1` the “hERG current change (%, negative = inhibition) at 1uM” value was 9.6%. For `O=C(CCc1n[nH]c(=O)[nH]c1=O)Nc1cccc([N+](=O)[O-])c1`, the “hERG current change (%, negative = inhibition) at 1uM” value was 16.9%. With `O=S(=O)(Nc1cccc(S(=O)(=O)N2CCCCCC2)c1)c1ccccc1` the “hERG current change (%, negative = inhibition) at 1uM” value was 6.69%.
